# PubChem BioAssay AID504832 (National Center for Advancing Translational Sciences (NCATS), 2011)
# In all, about 310,000 compounds went through this assay and about 18,000 (5.8%) were called active. The inconclusive results got no clear call from the source; some entries with a clear call stand among them for comparison. Calls come from the whole dose curve; as a rule, active = well fitted inhibition curve with a large enough effect; inconclusive = small, poorly fitted or top-dose-only effect, or another doubt; inactive = no such curve, though single readings can be large or run the other way. Potencies of inconclusive entries are left out as doubtful fits.
# Test: Primary qHTS for delayed death inhibitors of the malarial parasite plastid, 48 hour incubation
# Conditions: P. falciparum luciferase growth in erythrocytes; series mostly up to 28.7 µM
# In short: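 Growth was read as firefly luciferase luminescence after a 48 h, 37 C, 5% CO2 exposure of compounds to reporter-bearing P. falciparum cultures (0.1% parasitemia, 2% hematocrit final) in Albumax-supplemented RPMI 1640.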
# Potency is the fitted concentration of half-maximal effect; tags give direction and shape of the fitted curve.
row,Compound,Potency
1,COc1ccccc1-c1nn(-c2ccccc2)cc1C(=O)N1CCN(C(=O)c2ccco2)CC1,"inconclusive [inhibitor, single point]"
2,O=C(NNC(=O)c1ccc(Br)s1)c1cccc(Cl)c1,"inconclusive [inhibitor, partial curve, poor fit]"
3,O=C1CC(O)(c2ccccc2)C(c2ccccc2)=C1c1ccccc1 (stereo unspecified),active: 10.4 µM
4,CC(C)c1ccc(Nc2nc(NCc3ccco3)nc(N3CCOCC3)n2)cc1,active: 13.1 µM
5,Cc1cccc(C(=O)NCC(=O)N2CCN(S(=O)(=O)c3cc(C)ccc3C)CC2)c1,"inconclusive [inhibitor, single point]"
6,COc1ccccc1C(=O)NC(=Nc1nc2ccccc2o1)NC(=O)c1ccccc1OC,"inconclusive [inhibitor, single point]"
7,COc1ccccc1NC(=O)Cn1c(CCC(=O)O)ccc1-c1ccccc1,inactive
8,CN(C)C(=O)COc1ncnc2scc(-c3ccc(F)cc3)c12,"inconclusive [inhibitor, full curve, poor fit]"
9,Cc1[nH]c2ccccc2c1/C=C/c1nc2ccccc2c(=O)n1-c1ccc([N+](=O)[O-])cc1,"inconclusive [inhibitor, partial curve]"
10,CC(C)(C)C(Cn1ccnc1)NC(=O)c1ccc2nc(C3CC3)oc2c1 (stereo unspecified),"inconclusive [inhibitor, single point]"
11,CC(C)Cn1c(N)c(C(=O)COC(=O)/C=C/c2ccccc2)c(=O)n(C)c1=O,"inconclusive [inhibitor, single point]"
12,CCC/C=C/C=C/C(=O)OC1/C(=C/C(=O)OC)CC2CC(C(C)O)OC(=O)CC(O)CC3CC(OC(C)=O)C(C)(C)C(O)(CC4C/C(=C/C(=O)OC)CC(/C=C\C(C)(C)C1(O)O2)O4)O3 (stereo unspecified),active: 3.79 µM
13,C#CCOCCOCCOCCNc1nc(N2CCN(C(=O)CCCCCCCCCCNC(=O)[C@H](CCCCN)n3cc(C)nn3)CC2)nc(N2CCN(C(=O)CCCCCCCCCCNC(=O)[C@H](CCCCN)n3cc(CCCC(=O)O)nn3)CC2)n1,active: 10.4 µM
14,Cc1ccc(N(CC(=O)NCc2ccccc2)C(=O)CCC(=O)Nc2ccccn2)c(C)c1,"inconclusive [inhibitor, single point]"
15,CN(CCCC1CCCC1)C(=O)CC1C(=O)NCCN1Cc1cccc(F)c1F (stereo unspecified),"inconclusive [inhibitor, single point]"
16,COc1cc(NC(=O)NCCN2CCN(c3ccccc3)CC2)cc(OC)c1OC,"inconclusive [inhibitor, partial curve, poor fit]"
17,COC(=O)c1c(NC(=O)C2CCCCC2)sc2c1CCN(C(C)C)C2,"inconclusive [inhibitor, single point]"
18,COc1ccccc1NC(=O)COC(=O)c1cc2ccccc2cc1O,"inconclusive [inhibitor, single point]"
19,Cc1ccc(N(C)C(=O)CCS(=O)(=O)c2cc3c(cc2Cl)NC(=O)CO3)cc1,"inconclusive [inhibitor, single point]"
20,CCc1cc2c(COC(=O)CCNS(=O)(=O)c3cccc(C(F)(F)F)c3)cc(=O)oc2cc1O,active: 4.65 µM
21,CSc1ccccc1NC(=O)C1CCN(S(C)(=O)=O)CC1,inactive
22,C#CCOc1ccc(/C=C2\SC(=S)N(Cc3cccnc3)C2=O)cc1,"inconclusive [inhibitor, single point]"

row,Compound,Potency
1,CC1(OC(=O)CCc2ccccc2)C(=O)C=C2C=C(c3ccc(C#N)cc3)N(C3CCCC3)C=C2C1=O (stereo unspecified),"inconclusive [inhibitor, single point]"
2,CCOC(=O)Cn1cnc2scc(-c3ccccc3)c2c1=O,"inconclusive [inhibitor, single point]"
3,COc1ccccc1NC(=O)/C(=C/c1cccc([N+](=O)[O-])c1)c1ccccc1,"inconclusive [inhibitor, single point]"
4,O=C(OCC(=O)N1CCN(C(=O)c2ccco2)CC1)c1ccccc1NCCO,inactive
5,Cc1cc(=O)oc2cc(OCCC[n+]3ccccc3)ccc12,active: 5.22 µM
6,CCCC/C(O)=C1\C(=O)CCCC1=NCCc1c(C)[nH]c2ccc(OC)cc12,"inconclusive [inhibitor, partial curve, poor fit]"
7,O=C(Nc1ccccn1)c1ccc2ccccc2c1O,inactive
8,C=C1c2cc3c(cc2NC(=S)N1Cc1ccccc1)OCO3,active: 11.7 µM
9,CC1=Nc2cc(C(=O)NCCN3CCOCC3)ccc2Sc2c(C)ccc(C)c21,"inconclusive [inhibitor, partial curve, poor fit]"
10,Cc1ccc(-n2c(/C=C/c3ccc4c(c3)OCO4)nc3ccccc3c2=O)cc1,"inconclusive [inhibitor, single point]"
11,CCCCn1c(SCC(N)=O)nnc1-c1ccco1,"inconclusive [inhibitor, partial curve]"
12,FC(F)Oc1ccc(NC(=S)NCc2cccnc2)cc1,"inconclusive [inhibitor, single point]"
13,CC1CCN(S(=O)(=O)Cc2ccccc2Cl)CC1,"inconclusive [inhibitor, partial curve, poor fit]"
14,CC(C)=CCCC(C)CN1CCC(N2CCC(C(=O)NC(C)C)CC2)CC1 (stereo unspecified),active: 5.22 µM
15,O=C(c1ccco1)c1nnn(Cc2ccccc2)c1-c1ccccc1,inactive
16,C=CCSC1=N/C(=C\c2cccnc2)C(=O)N1c1ccc(OC)cc1,"inconclusive [inhibitor, partial curve]"
17,O=[N+]([O-])c1cc(S(=O)(=O)Nc2ccccc2)ccc1N1CCN(c2ccccc2)CC1,"inconclusive [inhibitor, partial curve, poor fit]"
18,Cc1ccccc1NC(=S)NC(NC(=O)c1ccccc1C)C(Cl)(Cl)Cl (stereo unspecified),"inconclusive [inhibitor, single point]"
19,C=CCOc1ccc(CNc2ccc3[nH]c(=O)[nH]c3c2)cc1,"inconclusive [inhibitor, single point]"
20,CCOC(=O)N1CCN(C(=O)c2cn(CC)c3ccc(S(=O)(=O)N4CCCC4)cc3c2=O)CC1,inactive
21,COc1ccc2[nH]c(=O)c(C(c3nnnn3CC3CCCO3)N3CCc4ccccc4C3)cc2c1 (stereo unspecified),"inconclusive [inhibitor, single point]"
22,CCc1ccc(-c2c(C)sc(NC(C)=O)c2C(N)=O)cc1,inactive

row,Compound,Potency
1,CC(=O)Nc1ccc(N2N=C(C)C(N=Nc3ccccc3)C2=O)cc1 (stereo unspecified),inactive
2,COc1cc(CN2CCN(C(=O)COc3ccccc3)CC2)cc(OC)c1OC,"inconclusive [inhibitor, single point]"
3,CCn1c(SCC(=O)c2ccc(O)c(O)c2)nnc1-c1ccccc1OC,"inconclusive [inhibitor, single point]"
4,COc1ccccc1NC(=O)COC(=O)C1CC2C=CC1C2 (stereo unspecified),inactive
5,C(=C\c1ccncc1)/c1ccncc1,inactive
6,CCN1CCN(CCNC(=O)c2ccc3c(c2)N(Cc2ccc(F)cc2)C(=O)c2ccccc2S3=O)CC1 (stereo unspecified),active: 10.4 µM
7,Cc1ccsc1C(=O)C1CCCN(Cc2ccc(O)cc2)C1 (stereo unspecified),"inconclusive [inhibitor, single point]"
8,Cc1cc(NC(=O)CSc2nc3cc(C(=O)NCCCOC(C)C)ccc3c(=O)n2Cc2ccco2)no1,"inconclusive [inhibitor, partial curve]"
9,CC(CC(=O)N1CCc2ccccc21)S(=O)(=O)c1ccc2c(c1)NC(=O)CO2 (stereo unspecified),inactive
10,CCc1sc(C(=O)N(CCCOC)c2c(N)n(CC(C)C)c(=O)[nH]c2=O)cc1C,inactive
11,NC(=O)Nc1ccc(C(=O)OCC(=O)Nc2cccc(S(=O)(=O)NC3=NCCCCC3)c2)cc1,"inconclusive [inhibitor, partial curve, poor fit]"
12,CCCC(=O)NCCc1nc2cc([N+](=O)[O-])ccc2n1C,inactive
13,CCn1cc(/C=C(\NC(=O)c2ccccc2F)C(=O)NCCN2CCOCC2)c2ccccc21,inactive
14,Clc1cccc(CON/C=N/c2ncnc3sccc23)c1,"inconclusive [inhibitor, single point]"
15,CN1CCN(C(=S)c2cn(Cc3ccc(Br)cc3)c3ccccc23)CC1,"inconclusive [inhibitor, partial curve]"
16,COc1ccc(S(=O)(=O)NCC(=O)N(CC(=O)NCc2ccccc2)Cc2ccco2)cc1,"inconclusive [inhibitor, full curve, poor fit]"
17,Cc1ccc(C(=O)NCC(C)(C)O)cc1,"inconclusive [inhibitor, single point]"
18,CCCCn1c(N)c(N(CCOC)C(=O)COC(=O)COc2ccc(CC)cc2)c(=O)[nH]c1=O,"inconclusive [inhibitor, single point]"
19,O=C(CNC(=S)N(Cc1ccccc1Cl)C1CCCC1)NCCN1CCOCC1,active: 10.4 µM
20,Cc1cc(C)c(Nc2ncnc(N)n2)c(C)c1,"inconclusive [inhibitor, single point]"
21,O=C1Nc2ccccc2Oc2cc(Oc3ccccc3)ccc21,"inconclusive [inhibitor, single point]"
22,CCn1cc(C(=O)N[C@H](C(=O)NC(C)(C)CO)C(C)C)c(=O)c2cc3c(cc21)OCO3,"inconclusive [inhibitor, single point]"
